What was measured:
DhaA.WT [1] = molecular target: T1, DhaA.WT (Rhodococcus rhodochrous, UniProt P0A3G2); assay: HPLC analysis of Cl-alkane hydrolysis; assay type: biochemical
DhaA.H272F = DhaA.H272F (Rhodococcus rhodochrous, UniProt P0A3G2, H272F); assay: In vitro binding of Cl-alkanes with functional groups, SDS-PAGE with fluoroimager or HRP-streptavidin; details: 15 minutes at room temperature
From the text: (§1) Then the proteins were resolved on SDS-PAGE.

DhaA.WT [2] = molecular target: T1, DhaA.WT; assay: as above; details: 15 minutes at room temperature
From the text: as §1

DhaA.WT [3] = molecular target: T1, DhaA.WT; assay: Hydrolysis of Cl-alkanes, pH-indicator dye (phenol red) assay; assay type: biochemical
From the text: To study the effect of a point mutation on the activity of DhaA (WT or mutant) hydrolysis of Cl-alkanes, a pH-indicator dye system as described by Holloway et al. (1998) was employed.

DhaA.H272F-Flag = molecular target: T2, DhaA.H272F-Flag (Rhodococcus rhodochrous, UniProt P0A3G2, H272F); assay type: cell-based; details: 60 minute treatment
T2 construct: […]; expressed in transfected cells; host or cells: CHO-K1

| Compound | hydrolysis by DhaA.WT (HPLC) (DhaA.WT [1]) | binding to DhaA.H272F (DhaA.H272F) | binding to DhaA.WT (DhaA.WT [2]) | hydrolysis by DhaA.WT (DhaA.WT [3]) | fraction of DhaA.H272F-Flag protein expressed in CHO-K1 cells that was labeled (DhaA.H272F-Flag) |
| --- | --- | --- | --- | --- | --- |
| O=C(NCCOCCOCCCCCCCl)c1ccc(-c2c3ccc(=O)cc-3oc3cc(O)ccc23)c(C(=O)O)c1 [N-{2-[2-(6-Chlorohexyloxy)-ethoxyl-ethyl}-fluorescein-5-amide] | very efficiently hydrolyzed | bound to DhaA.H272F | but not to DhaA.WT | – | – |
| O=C(CCCC[C@@H]1SC[C@@H]2NC(=O)N[C@@H]21)NCCOCCOCCCCCCCl [biotin-C10H21NO2—Cl] | – | bound to DhaA.H272F | but not to DhaA.WT | efficiently hydrolyzed | about 80% |
| N-{2-[2-(6-Chlorohexyloxy)-ethoxy]-ethyl}-tetramethylrhodamine-5-(and -6)-amide | – | bound to DhaA.H272F | but not to DhaA.WT | – | – |
